Scores with a large standard error are left out. The source holds two more conditions with little spread; they are left out. Names with del lack the residues named; names with ins carry added residues between the positions named. For part of these data: The data file names ogerin without a concentration.
B1: GPR68, Q15743 (parent)
chain: MGNITADNSSMSCTIDHTIHQTLAPVVYVTVLVVGFPANCLSLYFGYLQIKARNELGVYLCNLTVADLFYICSLPFWLQYVLQHDNWSHGDLSCQVCGILLYENIYISVGFLCCISVDRYLAVAHPFRFHQFRTLKAAVGVSVVIWAKELLTSIYFLMHEEVIEDENQHRVCFEHYPIQAWQRAINYYRFLVGFLFPICLLLASYQGILRAVRRSHGTQKSRKDQIQRLVLSTVVIFLACFLPYHVLLLVRSVWEASCDFAKGVFNAYHFSLLLTSFNCVADPVLYCFVSETTHRDLARLRGACLAFLTCSRTGRAREAYPLGAPEASGKSGAQGEEPELLTKLHPAFQTPNSPGSGGFPTGRLA

How the values were obtained:
[1] = variants of: B1; assay: cAMP reporter score (Enrich2 score, wild type = 0); higher = more signal; HEK293T, FACS bins
[2] = variants of: B1; assay: surface expression score (Enrich2 score, wild type = 0); higher = more signal; HEK293T, FACS bins

Variant | cAMP reporter score ([1]; pH 5.5) | cAMP reporter score ([1]; pH 6) | cAMP reporter score ([1]; pH 6, modulator: ogerin) | surface expression score [2] | cAMP reporter score ([1]; pH 6.5, modulator: ogerin)
S88F | -1.59 | -0.284 | -0.917 | 0.645 | –
S88G | -0.742 | – | -0.506 | 0.416 | 0.344
S88H | -1.38 | -0.581 | – | 0.516 | 1.49
S88K | 0.594 | 0.94 | 0.476 | 1.3 | -0.022
S88L | -0.106 | -0.279 | -0.309 | 0.225 | -1.59
S88M | 1.3 | -0.337 | 1.01 | 1.51 | -0.122
S88P | 0.816 | – | 0.632 | 0.58 | 0.826
S88Q | 1.19 | 0.347 | – | 1.28 | 0.051
S88R | 0.329 | – | 0.038 | 1.44 | -0.786
S88T | 0.421 | 2.23 | 0.805 | -0.372 | –
S88V | 1.17 | 1.97 | 0.719 | 0.558 | 2.18
S88Y | -0.872 | -1.02 | -0.934 | 0.672 | -1.18
S88_G90del | -1.34 | -0.506 | -1.31 | -1.08 | -0.664
S88_H89del | -1.72 | -1.12 | -1.57 | -0.419 | -1.7
S88_H89insGSG | -1.1 | 0.114 | -0.612 | 0.082 | -1.78
S88del | -1.54 | -1.04 | -0.992 | -0.929 | -0.391

Variant | cAMP reporter score ([1]; pH 5.5) | cAMP reporter score ([1]; pH 6) | cAMP reporter score ([1]; pH 6, modulator: ogerin) | surface expression score [2] | cAMP reporter score ([1]; pH 6.5, modulator: ogerin)
H89_D91del | -1.09 | -1.08 | -0.914 | -0.565 | -0.176
H89_G90del | -1.2 | -0.715 | -0.978 | -0.314 | -0.802
H89_G90insGSG | -0.769 | -1.69 | -1.47 | -0.4 | -0.754
H89del | -1.73 | -1.28 | -1.29 | -1.72 | -1.66
G90_D91del | -0.8 | -0.405 | – | 0.114 | -1.14
G90_D91insGSG | -1.61 | -1.03 | -1.11 | -1.15 | -1.3
D91_L92insG | -1.86 | -0.438 | -1.31 | -1.31 | -1.05
D91del | -1.03 | -0.476 | -2.34 | 0.994 | -0.16
L92_C94del | -1.75 | -0.656 | -1.25 | -2 | -1.19
L92_S93insGS | -2.23 | -1.3 | -1.96 | -2.18 | -0.971
L92_S93insGSG | -2.06 | -0.042 | -3.31 | -0.993 | –
S93A | -0.453 | 1.66 | 0.253 | -1.76 | 2.99
S93C | -0.2 | -0.726 | -0.492 | -0.156 | -0.85
S93E | -0.493 | -0.818 | -0.223 | -0.64 | -1.1
S93F | 1.26 | 1.38 | – | -0.129 | –
S93G | 0.141 | – | -0.654 | -1.78 | –
